{"source": "PubChem BioAssay AID1745845", "about": "(National Center for Advancing Translational Sciences (NCATS), 2022)", "note": "Out of some 360,000 compounds screened, about 2,600 (0.72%) were called active. The shares of active, inactive and inconclusive entries below differ from those in the screen. Calls come from the whole dose curve; as a rule, active = well fitted inhibition curve with a large enough effect; inconclusive = small, poorly fitted or top-dose-only effect; inactive = no such curve, though single readings can be large or run the other way. Potencies beside an inconclusive call are fits to weak or partial responses and may not hold up. Potency is the fitted concentration of half-maximal effect; tags give direction and shape of the fitted curve.", "data": [{"experiment": "Primary qHTS for Inhibitors of ATXN expression; note: nearly all actives have a fitted effect of over 55% in size", "settings": "HEK-293 ATXN2-luciferase reporter, luminescence, 24 h; series mostly up to 57 µM", "procedure,_shortened": "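ATXN2-luciferase reporter cells (luciferase flanked by upstream and downstream ATXN2 gene portions) were treated 24 h at 37 °C with compounds at up to 57 uM. SteadyGlo luminescence gave expression; GF-AFC fluorescence gave viability.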", "values": [{"smiles": "O=[N+]([O-])c1ccc(/C=C/c2ccc3ccccc3n2)cc1", "Potency": "inconclusive: 35.5 µM [inhibitor, single point]"}, {"smiles": "CC(C)=C1SC(N2CCN(c3ccc(C)c(Cl)c3)CC2)=NC1=O", "Potency": "inconclusive: 11.2 µM [inhibitor, partial curve]"}, {"smiles": "CCC(=O)NC(=S)Nc1ccc(NC(=O)COc2ccc(Cl)c(C)c2)cc1", "Potency": "inactive"}, {"smiles": "Cc1ccc(N(Cc2cc(=O)[nH]c3ccccc23)C(=O)CCl)c(C)c1", "Potency": "inconclusive: 39.8 µM [inhibitor, single point]"}, {"smiles": "OC1CCCC1NCc1ccnc2cc(Cl)ccc12", "note": "(configuration not stated)", "Potency": "inconclusive: 31.6 µM [inhibitor, single point]"}, {"smiles": "CCOc1cc(CNCCc2ccc(S(N)(=O)=O)cc2)ccc1OCc1ccc(Cl)cc1", "Potency": "inconclusive: 39.8 µM [inhibitor, single point]"}, {"smiles": "CCc1nnc(NC(=O)c2cccc(C(=O)Nc3nnc(CC)s3)n2)s1", "Potency": "inconclusive: 5.01 µM [inhibitor, full curve]"}, {"smiles": "COC(=O)c1c(-c2ccc(OC)cc2)oc2ccc(-c3cc(OC)c(OC)c(OC)c3)cc12", "Potency": "inconclusive: 31.6 µM [inhibitor, single point]"}, {"smiles": "NC(=NCc1ccccc1)NC(=O)c1nc(Cl)c(N)nc1N", "Potency": "inconclusive: 39.8 µM [inhibitor, partial curve, poor fit]"}, {"smiles": "COc1ccc(C(=O)Nc2ccc(C3=NNC(=O)CC3C)cc2NC(=O)c2ccc(OC)cc2)cc1", "note": "(configuration not stated)", "Potency": "inconclusive: 20 µM [inhibitor, partial curve, poor fit]"}, {"smiles": "Cc1cc(Cl)c2oc(C(=O)N3CCN(c4ccncc4)CC3)c(C)c2c1", "Potency": "inconclusive: 3.98 µM [inhibitor, full curve]"}, {"smiles": "COc1ccc(C(CC(=O)N2CCCC(C)C2)c2c(OC)cc(OC)c3c(-c4ccccc4)cc(=O)oc23)cc1", "note": "(configuration not stated)", "Potency": "inconclusive: 25.1 µM [inhibitor, partial curve, poor fit]"}, {"smiles": "CCn1c(=O)c(C(=O)NCc2ccc(Cl)cc2)c(O)c2ccccc21", "Potency": "inconclusive: 37.7 µM [inhibitor, single point]"}, {"smiles": "Cc1cccc(C)c1N(CC(O)Cn1c2ccccc2c2ccccc21)S(C)(=O)=O", "note": "(configuration not stated)", "Potency": "inconclusive: 39.8 µM [inhibitor, single point]"}, {"smiles": "Clc1ccc(-c2nnc(Sc3nc4ccccc4o3)c3ccccc23)cc1", "Potency": "inconclusive: 39.8 µM [inhibitor, single point]"}, {"smiles": "CCN(C[C@H]1N[C@@](Cc2ccccc2)(C(=O)OC)[C@H]2C(=O)N(C)C(=O)[C@@H]12)S(=O)(=O)c1ccc(OC)cc1", "Potency": "inactive"}, {"smiles": "O=C(c1ccco1)N1CCN(c2ccnc3cc(Cl)ccc23)CC1", "Potency": "inconclusive: 2 µM [inhibitor, full curve]"}, {"smiles": "O=C1C=CC(=O)N1c1ccc(OC(F)F)cc1", "Potency": "inconclusive: 39.8 µM [inhibitor, single point]"}, {"smiles": "CC1=C(C(=O)N(C(C)C)C(C)C)CC(CC(=O)NCc2cccc3ccccc23)C(=O)N1Cc1ccc(C(C)(C)C)cc1", "note": "(configuration not stated)", "Potency": "inconclusive: 39.8 µM [inhibitor, single point]"}, {"smiles": "CCOc1ccc(C(=O)c2cn(Cc3ccc(OC)cc3)c3cc(OC)c(OC)cc3c2=O)cc1", "Potency": "inconclusive: 25.1 µM [inhibitor, partial curve, poor fit]"}, {"smiles": "O=C(NC(c1ccc(-c2ccccc2)cc1)c1cnccn1)C1CCN(CCCOc2ccccc2)CC1", "note": "(configuration not stated)", "Potency": "inconclusive: 35.5 µM [inhibitor, single point]"}, {"smiles": "COc1cccc(-n2c(-c3ccco3)nc3c(cnn3-c3ccc(C)cc3)c2=O)c1", "Potency": "inconclusive: 35.5 µM [inhibitor, single point]"}, {"smiles": "Cc1ccc(NC(=O)NCC2CCN(Cc3cccc(Cl)c3)CC2)cc1Cl", "Potency": "inconclusive: 39.8 µM [inhibitor, single point]"}, {"smiles": "CC(C)CCN(C(=S)Nc1cccc(C(F)(F)F)c1)C(C)c1ccccn1", "note": "(configuration not stated)", "Potency": "inconclusive: 31.6 µM [inhibitor, single point]"}, {"smiles": "COc1ccc(OCC(O)CN2CCC(CN3C(=O)c4cccc5cccc(c45)C3=O)CC2)cc1", "note": "(configuration not stated)", "Potency": "inconclusive: 28.2 µM [inhibitor, single point]"}, {"smiles": "Cc1ccc(C)c(Cn2c(SCC(=O)N(C)Cc3ccccc3)nc3ccccc32)c1", "Potency": "inconclusive: 39.8 µM [inhibitor, single point]"}, {"smiles": "CCCNC(=O)c1nnsc1S(=O)c1ccc(Cl)cc1", "note": "(configuration not stated)", "Potency": "inconclusive: 2.67 µM [inhibitor, partial curve, poor fit]"}, {"smiles": "CN(C(=O)CSc1nc2ccc(NC(=O)CCc3ccccc3)cc2s1)c1ccccc1", "Potency": "inconclusive: 17.8 µM [inhibitor, partial curve, poor fit]"}, {"smiles": "N#CC(C#N)=C1C=CC=CN1/C(=C\\c1ccco1)C(=O)c1ccc(Br)cc1", "Potency": "active: 17.8 µM"}, {"smiles": "COC(=O)C1=C(C)N(Cc2ccccc2)C(=NCCc2c[nH]c3ccccc23)N[C@H]1c1ccccc1", "Potency": "inconclusive: 31.6 µM [inhibitor, single point]"}, {"smiles": "O=C(C1=C[C@H](c2ccccc2)C[C@H](OCc2ccc(CO)cc2)O1)N1CCN(Cc2ccccc2)CC1", "Potency": "inconclusive: 28.2 µM [inhibitor, single point]"}, {"smiles": "CC(C)c1ccc2oc(-c3cc(NC(=O)c4cccnc4)ccc3Cl)nc2c1", "Potency": "inconclusive: 39.8 µM [inhibitor, single point]"}, {"smiles": "Cc1ccc(NCCCn2cnc3c(OCc4ccccc4)ncnc32)cc1C", "Potency": "inconclusive: 35.5 µM [inhibitor, partial curve, poor fit]"}, {"smiles": "COC(=O)C1=C(C)NC(C)=C(C(=O)OCC(C)=O)C1c1ccccc1[N+](=O)[O-]", "note": "(configuration not stated)", "Potency": "inconclusive: 35.5 µM [inhibitor, partial curve]"}, {"smiles": "CCOc1ccccc1NC(=O)NCc1noc2ccc(C)cc12", "Potency": "inactive"}, {"smiles": "CCOC(=O)c1ccc(NC(=O)c2nc[nH]c2C(=O)N[C@H](C)c2ccccc2)cc1", "Potency": "active: 31.6 µM"}, {"smiles": "COc1ccccc1CCn1cnc(Cc2ccccc2)c1C(C)C", "Potency": "inconclusive: 31.6 µM [inhibitor, single point]"}]}]}
